# Experimental data from PubChem BioAssay AID588855 (National Center for Advancing Translational Sciences (NCATS), 2011).
# About 5,000 (1.2%) of roughly 410,000 compounds were called active. Inconclusive results, whose numbers are uncertain, are shown with a selection of clear calls. The call rests on the fitted dose curve; in most records, active means well fitted inhibition curve with a large enough effect; inconclusive means small, poorly fitted or top-dose-only effect; inactive means no such curve, though single readings can be large or run the other way. Potencies beside an inconclusive call are fits to weak or partial responses and may not hold up.
# Experiment: qHTS for Inhibitors of TGF-b; further: nearly all actives have a fitted effect of over 65% in size
# Conditions: HepG2 CAGA-GFP TGF-b/SMAD3 reporter, GFP fluorescence, 18 h, TGF-beta stimulated, 500 pg/mL final; series mostly up to 46.1 µM
# In short: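 HEPG2 CAGA-GFP cells (1000/well, DMEM with 1% FBS) were pre-incubated 2 h at 37 degrees C, given compound by pin tool, then stimulated with TGF-beta at 500 pg/mL final for 18 h before per-cell GFP fluorescence imaging.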
# Potency means the concentration at half of the fitted maximal effect; tags describe the fitted curve by direction and shape.
row,Structure (SMILES),Potency
1,Nc1nc(N)c2cc(Sc3cccc(C(F)(F)F)c3)ccc2n1,"inconclusive: 22.4 µM [inhibitor, single point]"
2,COC(=O)N/N=C/c1cn(CCCOc2ccccc2)c2ccccc12,"inconclusive: 3.98 µM [inhibitor, partial curve, poor fit]"
3,CC(=O)N(C)c1nnc(-c2ccccn2)s1,"inconclusive: 0.562 µM [inhibitor, partial curve, poor fit]"
4,COc1ccc(Cl)cc1C(=O)NCCS(=O)(=O)N1CCN(c2ccccc2OC)CC1,"inconclusive: 14.1 µM [inhibitor, partial curve]"
5,COc1cccc(NC(=O)Cn2c(=O)n(Cc3ccc(C(=O)NCc4ccc(C)cc4)cc3)c(=O)c3ccccc32)c1,"inconclusive: 35.5 µM [inhibitor, single point]"
6,Cc1c(CCCN)c2ccccc2n1Cc1ccccc1,"inconclusive: 14.1 µM [inhibitor, single point]"
7,CC(C)N1CCN(CCCc2ccccc2)CC1CCO (stereo not drawn),inactive
8,COc1ccc2cc(C3=CCCC3(C)C(=O)O)ccc2c1 (stereo not drawn),inactive
9,CCOc1ccc(Cn2c(CNS(=O)(=O)c3ccc(C(C)(C)C)cc3)nc3cccnc32)cc1,"inconclusive: 35.5 µM [inhibitor, single point]"
10,COc1ccc(-n2cc(-c3ccccc3)c3c(N4CC(C)OC(C)C4)ncnc32)cc1 (stereo not drawn),"inconclusive: 15.8 µM [inhibitor, single point]"
11,CC(=O)Nc1ccc(SCC(=O)c2cc(C)n(-c3ccccc3)c2C)cc1,inactive
12,Cc1ccc(NC(=O)C2CCCN2S(=O)(=O)c2cccc3cccnc23)c(C)c1 (stereo not drawn),"inconclusive: 35.5 µM [inhibitor, single point]"
13,CC1=NN(c2nc3ccccc3s2)C(O)(C(F)(F)F)C1 (stereo not drawn),"inconclusive: 0.112 µM [inhibitor, full curve, poor fit]"
14,Cc1nn(-c2ccccn2)c2nc(-c3cccs3)cc(C(=O)NCc3ccco3)c12,"inconclusive: 20 µM [inhibitor, single point]"
15,COc1ccccc1Nc1ccc(NC(=O)c2cccc([N+](=O)[O-])c2C)cc1,"inconclusive: 35.5 µM [inhibitor, single point]"
16,Nc1ccc(-c2cnc(N)c(C(=O)c3cccnc3)n2)cn1,active: 7.94 µM
17,CC(=O)N1c2ccc(S(=O)(=O)N3CCCC(C(=O)NCc4ccc(Cl)cc4)C3)cc2CC1C (stereo not drawn),"inconclusive: 7.08 µM [inhibitor, partial curve]"
18,COc1ccc(OC)c(NC(=O)NNC(=O)CCCOc2ccc(Cl)cc2C)c1,"inconclusive: 2.24 µM [inhibitor, full curve]"
19,CC(C)c1ccc(N2C=Nc3ccc(C(C)C)cc3C2)cc1,"inconclusive: 17.8 µM [inhibitor, single point]"
20,CCOC(=O)C1=C(C)Nc2[nH]c(=O)[nH]c(=O)c2C1c1cccs1 (stereo not drawn),inactive
21,Cc1ccc(C(C)C)c(OCC(=O)N/N=C/C2CCCCC2)c1,"inconclusive: 22.4 µM [inhibitor, single point]"
22,CCN(CC)CCNC(=O)c1cn(CC)c2ccc(S(=O)(=O)N3CCc4ccccc4C3)cc2c1=O,"inconclusive: 25.1 µM [inhibitor, single point]"
23,CC(=O)N1CCN(C(=O)c2cc(-c3cccc4ccccc34)nc3ccccc23)CC1,inactive

row,Structure (SMILES),Potency
1,CC1=C(C(=O)OC(C)C)C(c2cccc([N+](=O)[O-])c2)n2c(cc(=O)[nH]c2=S)N1 (stereo not drawn),inactive
2,NC1=NC[C@H](c2ccccc2)N1CCCCC1CCCCC1,"inconclusive: 28.2 µM [inhibitor, single point]"
3,CC(C)c1cc(-c2cc(C(=O)NCc3ccccc3)on2)nc(NCC2CC2)n1,"inconclusive: 35.5 µM [inhibitor, single point]"
4,CCOC(=O)CN1C(=O)N[C@@H](c2cccs2)C(C(=O)OC)=C1C,"inconclusive: 12.6 µM [inhibitor, single point]"
5,CC(C)C[C@@H](CN)NC(=O)c1nc[nH]c1C(=O)N[C@@H](C)C(=O)CNC[C@H](C)NC(=O)c1nc[nH]c1C(=O)N[C@@H](C)C(=O)O,inactive
6,CNc1ccccc(C(=O)/C=C/c2ccccc2OC)c1=O,"inconclusive: 14.1 µM [inhibitor, single point]"
7,COc1ccc(CC(=O)Oc2ccccc2C)cc1S(=O)(=O)N1CCOCC1,"inconclusive: 2.24 µM [inhibitor, partial curve, poor fit]"
8,O=C1NCCOC(=O)[C@H](Cc2ccc(F)cc2)C/C=C\C[C@@H]1CC(=O)N(CCO)Cc1ccccc1,"inconclusive: 14.1 µM [inhibitor, single point]"
9,CCOC(=O)C1CCCN(C(=O)c2cc(Nc3ccc(OC)cc3OC)nc3ccccc23)C1 (stereo not drawn),inactive
10,CCOc1cc(S(=O)(=O)N2CCN(CC)CC2)ccc1Cl,inactive
11,Cc1ccccc1S(=O)(=O)NC(=O)C1(C)CCN1C(=O)Cc1ccc(Cl)cc1Cl (stereo not drawn),inactive
12,O=C(NCc1ccco1)c1cnn2c1NC(c1ccc(Br)cc1)CC2C(F)(F)F (stereo not drawn),"inconclusive: 35.5 µM [inhibitor, partial curve, poor fit]"
13,Cc1c(CN(C)C(=O)CSc2nc(-c3ccco3)cc(C(F)(F)F)n2)cnn1C,"inconclusive: 22.4 µM [inhibitor, single point]"
14,CCCOC(=S)NC(=O)c1sc2ccccc2c1Cl,inactive
15,O=C(CC(NC(=O)OCc1ccccc1)c1nn[nH]n1)OCc1ccccc1 (stereo not drawn),"inconclusive: 3.98 µM [inhibitor, partial curve, poor fit]"
16,Cc1nnc(SC(C)C(=O)Nc2ccc(Cl)cn2)n1Cc1ccccc1 (stereo not drawn),inactive
17,Cc1ccc(C(=O)c2ccccc2C(=O)Nc2ccccc2)cc1,"inconclusive: 11.2 µM [inhibitor, partial curve, poor fit]"
18,COc1ccc(OC)c(CC2C(=O)Nc3ccc(Br)cc32)c1 (stereo not drawn),"inconclusive: 2.24 µM [inhibitor, full curve, poor fit]"
19,CCOC(=O)c1ccc(NC(=O)c2ccc(NS(C)(=O)=O)cc2)cc1,inactive
20,COc1ccc(NC(=S)NCC2CCN(c3ccc(OC)cc3)C2)cc1 (stereo not drawn),"inconclusive: 20 µM [inhibitor, single point]"
21,CCOC(=O)c1c(C)oc2ccc(N(C(C)=O)S(=O)(=O)c3c(C)cc(C)cc3C)cc12,inactive
22,CC(C)N(c1ccccc1)c1ccc(NC(=O)COC(=O)CCN2C(=O)c3cccc([N+](=O)[O-])c3C2=O)cc1,"inconclusive: 10 µM [inhibitor, partial curve]"
23,O=C(NNC(=O)c1ccc(-n2cncn2)c([N+](=O)[O-])c1)c1ccccc1,"inconclusive: 35.5 µM [inhibitor, single point]"

row,Structure (SMILES),Potency
1,CCNCC(=O)N1c2ccccc2CCc2ccc(NC(=O)OC(C)C)cc21,"inconclusive: 35.5 µM [inhibitor, single point]"
2,CC1(C)CC(=O)C2=C(C1)Nc1[nH]n(-c3ccccc3)c(=O)c1C2c1ccc2c(c1)OCO2 (stereo not drawn),inactive
3,Cc1cc(C)nc(SCc2nnc(SCC(=O)Nc3nccs3)n2C)n1,inactive
4,CN(CC(=O)Nc1ccc(F)cc1)C(=O)CNC(=O)C1CCCCC1,inactive
5,Cc1ccc(COC(=O)Cc2coc3cc(O)ccc23)cc1,"inconclusive: 17.8 µM [inhibitor, single point]"
6,Nc1ccc2c(c1)C(=O)C(=O)c1ccccc1-2,"inconclusive: 3.98 µM [inhibitor, full curve, poor fit]"
7,CNc1nnc(-c2cc3cc(Cl)ccc3oc2=O)s1,"inconclusive: 0.112 µM [inhibitor, full curve, poor fit]"
8,Cc1nonc1OCCNCc1c(C(=O)N2CCCCCCC2)nc2ccc(Cl)cn12,"inconclusive: 22.4 µM [inhibitor, single point]"
9,Cc1cc(C)c2ccc(=O)n(CC(=O)N/N=C/c3ccccc3Cl)c2n1,inactive
10,Cc1cccc(NC(=O)C2CCN(S(=O)(=O)c3c(C)noc3/C=C/c3ccco3)CC2)c1,"inconclusive: 1.78 µM [inhibitor, full curve, poor fit]"
11,O=C(N/N=C/c1ccc(Br)s1)c1ccc([N+](=O)[O-])cc1,inactive
12,CC(C)Cc1cc(C(=O)Nc2cccc(O)c2)no1,"inconclusive: 8.91 µM [inhibitor, partial curve, poor fit]"
13,CN(C)c1ccc(N=c2sc3ccccc3n2C)cc1,"inconclusive: 22.4 µM [inhibitor, single point]"
14,S=c1[nH]nc(COc2ccccc2)n1-c1ccc(Cl)cc1,inactive
15,CCC1Oc2ccc(C)cc2N(CC(=O)NCCN2C(C)CCCC2C)C1=O (stereo not drawn),"inconclusive: 3.55 µM [inhibitor, partial curve, poor fit]"
16,Cc1ccc2nc(-c3cccc(Br)c3)cc(C(=O)NC3CC3)c2c1,inactive
17,CCCCCCN1CCN(C2CN(Cc3ccc([N+](=O)[O-])cc3)S(=O)(=O)C2)CC1 (stereo not drawn),"inconclusive: 11.2 µM [inhibitor, partial curve, poor fit]"
18,CCc1ccc(OCc2nnc(SCC(=O)Nc3cccc(C(=O)N4CCOCC4)c3)o2)cc1,inactive
19,CCOCCCNC(=O)CN1CCN(Cc2ccc(Cl)cc2)C1=O,"inconclusive: 25.1 µM [inhibitor, single point]"
20,O=S(=O)(CCNCCc1ccccc1)NCc1ccccc1,inactive
21,COc1ccc(COC(=O)C2CCN(S(=O)(=O)c3ccc(C)cc3)CC2)cc1,"inconclusive: 3.55 µM [inhibitor, single point]"
22,Cc1cccc(C)c1-n1ncc(C(=O)NCCN2CCN(C)CC2)c1C1CCN(C(=O)OC(C)(C)C)CC1,inactive
